# PubChem BioAssay AID504332 (National Center for Advancing Translational Sciences (NCATS), 2011)
# Several values for one entry are separate records, joined by “and”; a condition that tells them apart may be missing. Equal entries are not always repeated. The campaign covered roughly 350,000 compounds. About 31,000 (8.9%) were called active. This list was built around the results that the source calls inconclusive (neither active nor inactive); the mix of calls is not that of the screen. Calls follow the shape of the dose curve; as a rule, active = well fitted inhibition curve with a large enough effect; inconclusive = small, poorly fitted or top-dose-only effect; inactive = no such curve, though single readings can be large or run the other way. Potencies beside an inconclusive call are fits to weak or partial responses and may not hold up.
# Molecular target: Histone-lysine N-methyltransferase EHMT2 (Homo sapiens) (UniProt Q96KQ7)
# Experiment: qHTS Assay for Inhibitors of Histone Lysine Methyltransferase G9a; also: nearly all actives have a fitted effect of over 75% in size
# Conditions: G9a H3K9 monomethylation, AlphaScreen, 2 h; activity, negative = inhibition: at 59 µM (top of the series) unless noted
# Summary of the method: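 Step 1: enzyme (final 20 nM) with compound, 15 min RT. Step 2: substrate peptide 500 nM and SAM 20 uM, 2 h RT. Step 3: anti-H3K9me1 antibody and AlphaScreen beads, 10 min, then plate read.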
# % is scaled to controls: 0 for no effect and ±100 for the full control effect; potency is read from the fitted curve at half-maximal effect; tags tell the direction and shape of the fitted curve.
# Chain of UniProt Q96KQ7 (Q96KQ7 whole entry, looked up): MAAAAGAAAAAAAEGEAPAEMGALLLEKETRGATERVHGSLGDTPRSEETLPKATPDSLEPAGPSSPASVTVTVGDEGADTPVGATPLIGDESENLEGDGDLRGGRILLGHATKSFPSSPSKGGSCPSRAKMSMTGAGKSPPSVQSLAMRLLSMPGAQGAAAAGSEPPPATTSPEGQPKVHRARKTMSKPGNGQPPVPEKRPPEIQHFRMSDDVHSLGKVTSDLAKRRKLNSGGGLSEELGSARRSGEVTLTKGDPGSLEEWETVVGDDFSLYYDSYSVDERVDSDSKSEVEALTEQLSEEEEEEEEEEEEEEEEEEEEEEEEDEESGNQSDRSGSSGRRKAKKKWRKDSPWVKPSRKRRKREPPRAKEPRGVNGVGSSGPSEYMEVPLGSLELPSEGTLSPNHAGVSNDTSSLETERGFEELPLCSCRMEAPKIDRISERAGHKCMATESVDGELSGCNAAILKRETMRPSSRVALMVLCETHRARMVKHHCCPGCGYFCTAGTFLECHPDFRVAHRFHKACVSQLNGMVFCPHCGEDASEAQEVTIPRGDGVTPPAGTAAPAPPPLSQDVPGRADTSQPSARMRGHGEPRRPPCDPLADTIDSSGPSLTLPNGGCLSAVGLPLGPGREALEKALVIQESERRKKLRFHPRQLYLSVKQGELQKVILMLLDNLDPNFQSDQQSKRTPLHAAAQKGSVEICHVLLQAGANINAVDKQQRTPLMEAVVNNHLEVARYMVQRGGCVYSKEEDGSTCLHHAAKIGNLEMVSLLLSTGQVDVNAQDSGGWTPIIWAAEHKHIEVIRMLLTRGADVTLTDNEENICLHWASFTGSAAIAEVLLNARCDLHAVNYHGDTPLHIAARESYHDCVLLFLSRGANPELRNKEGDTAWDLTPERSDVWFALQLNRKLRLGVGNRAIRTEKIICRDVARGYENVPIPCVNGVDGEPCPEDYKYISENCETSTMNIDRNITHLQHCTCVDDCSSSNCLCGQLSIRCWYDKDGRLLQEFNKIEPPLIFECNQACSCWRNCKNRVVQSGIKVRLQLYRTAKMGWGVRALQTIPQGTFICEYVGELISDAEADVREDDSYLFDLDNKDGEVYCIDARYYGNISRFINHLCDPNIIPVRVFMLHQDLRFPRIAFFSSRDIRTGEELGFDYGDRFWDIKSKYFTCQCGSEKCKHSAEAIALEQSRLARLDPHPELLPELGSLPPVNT
Compound,Potency,"activity, negative = inhibition"
CC(C)c1ccc(OCc2ccc(C(=O)O)o2)cc1,"inconclusive: 39.8 µM [inhibitor, partial curve, poor fit]",–
COc1ccc(NS(=O)(=O)c2ccc3[nH]c(=O)ccc3c2)cc1OC,inactive,–
Clc1ccccc1C1=Nn2c(nnc2-c2ccco2)SC1,"inconclusive: 56.2 µM [inhibitor, partial curve, poor fit]",–
O=C(O)CCc1nn2c3ccccc3n(CC(=O)O)c2nc1=O,active: 50.1 µM,–
CCOc1ccc(NC(=O)CN(C)C(=O)c2cccc3ccccc23)cc1OCC,inactive,–
CN(C)Cc1ccccc1-c1nc(NC2CC2)c2ccccc2n1,–,inactive: 6.32% [at 0.501 µM]
COC(=O)c1ccc(C2C(C(=O)c3ccco3)=C(O)C(=O)N2CC2CCCO2)cc1 (centres undefined),active: 44.7 µM,–
COC(=O)C1C(O)=C(C=Nc2ccc(N)cc2)C(=O)CC1(C)C (centres undefined),"inconclusive: 11.2 µM [inhibitor, partial curve, poor fit]",–
O=C(c1ccco1)N1CCCN(Cc2nc(-c3ccc4c(c3)OCO4)no2)CC1,"inconclusive: 28.2 µM [inhibitor, single point]",–
Cc1ccc(SCCC(=O)OCC(=O)Nc2ncc(Cl)cc2Cl)cc1,"inconclusive: 89.1 µM [inhibitor, single point]",–
Cc1ccc(NNC(=O)c2c(C)noc2C)cc1Cl,active: 7.08 µM,–
O=S1(=O)CCN2C(c3ccco3)=CSC2=N1,"inconclusive: 39.8 µM [inhibitor, single point]",–
O=C1CCc2cc(NS(=O)(=O)c3ccccc3)cc3c2N1CCC3,"inconclusive: 63.1 µM [inhibitor, partial curve, poor fit]",–
O=C(Cc1ccccc1F)N1CCN(S(=O)(=O)c2ccc(Cl)cc2)CC1,"inconclusive: 1.26 µM [inhibitor, partial curve, poor fit]",–
O=C(NCCc1ccccc1)c1ccc2c(c1)N(Cc1ccc(F)cc1Cl)C(=O)CS2,inactive,–
COc1ccc(/C=C/C(=O)OCC(=O)N(C)c2c(N)n(Cc3ccccc3)c(=O)[nH]c2=O)cc1OC,"inconclusive: 50.1 µM [inhibitor, partial curve, poor fit]",–
O=C(CN1CCC(n2cnc3cc(F)ccc32)CC1)Nc1ccccc1Br,"inconclusive: 3.55 µM [inhibitor, partial curve, poor fit]",–
Cc1cc(C)c(NC(=O)CS(=O)CC(=O)N2CCN(c3ccc(F)cc3)CC2)c(C)c1 (centres undefined),"inconclusive: 70.8 µM [inhibitor, partial curve, poor fit]",–
COCCN(C(=O)CSc1nnc(Nc2ccccc2F)s1)c1c(N)n(Cc2ccccc2)c(=O)[nH]c1=O,active: 14.1 µM,–
O=C(O)c1ccc2c(c1)C(=O)N(c1ccc(/C=C/C(=O)c3ccccc3)cc1)C2=O,"inconclusive: 56.2 µM [inhibitor, partial curve, poor fit]",–
Cn1c2c(c(=O)n(C)c1=O)C(CC(=O)Nc1ccccc1F)C(=O)N2 (centres undefined),"inconclusive: 79.4 µM [inhibitor, single point]",–
CCOC(=O)Cc1[nH]nc2c1C(c1ccoc1)C(C#N)=C(N)O2 (centres undefined),inactive,–
O=C(c1ccccc1)c1c[nH]c(C(=O)NCCCn2ccnc2)c1,–,inactive: 27.3% [at 12.7 µM]

Compound,Potency,"activity, negative = inhibition"
O=C(N/N=C/c1cccc(O)c1)c1cc(-c2ccccc2)nc2ccccc12,"inconclusive: 89.1 µM [inhibitor, single point]",–
CCOc1ncccc1C(=O)N1CCN(c2cccc(C)c2C)CC1,inactive,–
O=C(Nc1cccc([N+](=O)[O-])c1)NC1CCCCCCC1,"inconclusive: 10 µM [inhibitor, full curve]",–
O=C1C2C3c4ccccc4C(c4ccccc43)C2C(=O)N1Cc1ccco1 (centres undefined),"inconclusive: 89.1 µM [inhibitor, single point]",–
CC(C)C(=O)NC(=S)Nc1ccc(S(=O)(=O)N2CCN(C)CC2)cc1,"inconclusive: 25.1 µM [inhibitor, single point]",–
Cc1cccc(NC(=O)CCc2ccc(C)o2)c1,–,inconclusive: -67.2% [inhibitor]
CCOc1ccc(NC(=O)CC2C(=O)N(c3ccccc3)C(=O)N2CCc2sccc2C)cc1 (centres undefined),inactive,–
CN(C)S(=O)(=O)c1cccc(NC(=O)COC(=O)c2cc(-c3cccc(Br)c3)nc3ccccc23)c1,inactive,–
COc1cccc(C(=O)O/N=C(\N)c2ccccn2)c1OC,–,inactive: 13.4% [at 2.33 µM]
N#Cc1cc2c(nc1SCc1cccnc1)CCCC2,"inconclusive: 3.16 µM [inhibitor, full curve, poor fit]",–
CCOc1nc(-c2ccccc2)ccc1-c1noc(-c2ccc(C)cc2)n1,inactive,–
CC1CCc2c(sc(NS(=O)(=O)c3ccccc3)c2C(=O)OC(C)C)C1 (centres undefined),"inconclusive: 31.6 µM [inhibitor, single point]",–
CCOC(=O)Cc1csc(SCc2cc(=O)oc3cc(O)ccc23)n1,"inconclusive: 31.6 µM [inhibitor, single point]",–
Cc1ccc(CN2CCSc3ccc(C(=O)NCc4ccccn4)cc32)cc1,active: 39.8 µM,–
NNS(=O)(=O)c1ccc(N2CCCC2=O)c([N+](=O)[O-])c1,active: 10 µM,–
CC1(C)CC(=O)c2cc(C(=O)O)c(=O)n(-c3ccccc3)c2C1,inactive,–
COc1cccc2cc(C(=O)CS(=O)(=O)c3ccc(C)cc3)c(=O)oc12,"inconclusive: 70.8 µM [inhibitor, partial curve, poor fit]",–
CCN(c1ccc(NC(=O)COC(=O)c2ccc(C)c(S(=O)(=O)N3CCOCC3)c2)cc1)C(C)C,active: 4.47 µM,–
CCOC(=O)N1CCN(C(=O)c2oc(=O)c3ccccc3c2-c2ccc(C)cc2)CC1,"inconclusive: 28.2 µM [inhibitor, single point]",–
CC(=O)c1ccc(NC(=O)c2nc(-c3ccc(Cl)cc3)n3c2CCCCC3)cc1,"inconclusive: 10 µM [inhibitor, partial curve]",–
Cc1ccc2nc(NC(=O)C3CCCN(S(=O)(=O)c4cnc[nH]4)C3)sc2c1 (centres undefined),"inconclusive: 89.1 µM [inhibitor, single point]",–
CCCCc1c(O)n(-c2ccccc2)[nH]c1=O,active: 11.2 µM,–
COc1cc(C(=O)NCCN2C(=O)S/C(=C\c3cccs3)C2=O)cc(OC)c1OC,"inconclusive: 89.1 µM [inhibitor, single point]",–

Compound,Potency,"activity, negative = inhibition"
CCN1CCN(CC(=O)c2cc(Cl)ccc2Cl)CC1,active: 14.1 µM,–
O=C(O)c1ccc2cc[nH]c2c1,inactive,–
COC(=O)[C@@H]1C[C@@]2(O)[C@@H](O)[C@@H](O)[C@@H](O)C[C@H]2N1CC(c1ccccc1)c1ccccc1,"inconclusive: 2.51 µM [inhibitor, single point]",–
O=C(OCCOc1ccc(Br)cc1)c1ccc(Cl)nc1,inactive,–
COC(=O)c1cc2c(ccn2-c2ccc(F)cc2)n1CC(C)C,active: 44.7 µM,–
Cc1c2cc(O)c(=O)cc-2oc2cc(O)c(O)cc12,active: 2.51 µM and active: 7.94 µM,–
C=C1CCN(C(C(=O)OC)C(C)C)S(=O)(=O)c2ccc(F)cc21 (centres undefined),–,inconclusive: -52.8% [inhibitor]
CN1C(=O)/C(=N\OC(=O)c2cccc3ccccc23)c2ccccc21,"inconclusive: 11.2 µM [inhibitor, partial curve, poor fit]",–
COCCNC(=S)N(CCc1c(C)[nH]c2ccc(C)cc12)Cc1cc(OC)c(OC)c(OC)c1,"inconclusive: 70.8 µM [inhibitor, partial curve, poor fit]",–
CS(=O)(=O)CC[C@@H](C(=O)NCCc1ccccc1)N1Cc2ccccc2C1=O,inactive,–
Cc1ccc(OC2=NS(=O)(=O)c3ccccc32)cc1,"inconclusive: 25.1 µM [inhibitor, partial curve, poor fit]",–
Cc1sc2ncnc(SCC(=O)N3c4ccccc4Sc4ccc(Cl)cc43)c2c1C,inactive,–
CCOC(=O)c1c(NC(=O)c2cc(-c3cccc(Cl)c3)on2)sc(C(C)=O)c1C,active: 14.1 µM,–
COc1ccc(S(=O)(=O)N2CCN(CC(=O)c3ccc(O)c(O)c3)CC2)cc1,active: 28.2 µM,–
Cc1ccc(Nc2c3c(nc4nncn24)CCC3)c(C)c1,inactive,–
COc1ccc2c(c1)-c1nc(NC(=O)c3cccc(Br)c3)sc1CC2,"inconclusive: 28.2 µM [inhibitor, single point]",–
Cc1ccc(-n2c(N)c(C(=O)Nc3c(C)n(C)n(-c4ccccc4)c3=O)c3nc4ccccc4nc32)cc1C,"inconclusive: 79.4 µM [inhibitor, single point]",–
CN(C)CCOC(=O)C1(c2ccccc2)CCOCC1,"inconclusive: 79.4 µM [inhibitor, partial curve, poor fit]",–
COc1ccccc1C1C(C(=O)N2CCCCC2)=C(C)Nc2nc3ccccc3n21 (centres undefined),inactive,–
COc1ccc2c(c1)c(=O)oc1c(C)c(OCc3cc(C(=O)O)oc3C)ccc12,"inconclusive: 50.1 µM [inhibitor, partial curve, poor fit]",–
O=C(O)c1ccc(NS(=O)(=O)c2ccc(N3CCCC3)c([N+](=O)[O-])c2)cc1,"inconclusive: 89.1 µM [inhibitor, partial curve, poor fit]",–
Cc1ccc(CNC(=O)c2ccc(Cn3c(SCc4ccc(F)cc4)nc4cccnc43)cc2)o1,"inconclusive: 10 µM [inhibitor, partial curve]",–
N=c1c2c(-c3ccccc3)c(-c3ccccc3)n(Cc3ccco3)c2ncn1CCN1CCOCC1,"inconclusive: 50.1 µM [inhibitor, partial curve]",–
